Measurements reported in PubChem BioAssay AID463173 (ICCB-Longwood Screening Facility, Harvard Medical School, 2010).
In all, about 52,000 compounds went through this assay and about 4,300 (8.3%) were called active. Rule as the data show it: active = survival mostly below about 52% (no sharp cut-off); inactive = mostly above about 56%. The list shows a part of the results.

The molecules below were run on DeltatarO mutant (assay: S. aureus survival, RN4220 and DeltatarO strains – OD600, teichoic acid synthesis inhibitors, primary screen (AID 463173)). Conditions: S. aureus RN4220 wild type/DeltatarO growth, OD600, 18 h, stronger effect = lower value, screened at 18.75 µg/mL (by protocol).

Structure (SMILES) | survival
Cc1ccc(-c2nc3nc(C)cc(N4CCN(c5cccc(C)c5)C(C)C4)n3n2)cc1 (stereo unspecified) | inactive: 99%
O=C(Cn1c(=O)nc(-c2ccccc2F)c2cc(Cl)ccc21)Nc1ccccc1C(F)(F)F | inactive: 96%
Cc1nnc2sc(-c3ccc(N)cc3)nn12 | inactive: 91%
COc1cc2oc(=O)c(CC(=O)NCCc3ccccc3F)c(C)c2cc1OC | inactive: 55%
Cc1ccc(NC(=O)C2CCCN(S(=O)(=O)c3ccc4[nH]c(=O)ccc4c3)C2)cc1C (stereo unspecified) | inactive: 78%
CCCCN(C)CCCNC(=O)CN1C(=O)CSc2ccc(S(=O)(=O)N3CCOCC3)cc21 | inactive: 92%
CCCCNC(=O)Cn1ncc2c(C)n(Cc3cccc(Cl)c3)c(C)c2c1=O | inactive: 93%
O=C(NCc1cccs1)c1nn(-c2ccccc2F)nc1CO | inactive: 91%
CCC1Oc2ccc(C)cc2N(CC(=O)N(Cc2cccnc2)Cc2cccc(OC)c2)C1=O (stereo unspecified) | inactive: 80%
COc1ccc(-c2nn(CC(=O)NCc3ccccc3)c3c2cnc2ccc(F)cc23)cc1 | inactive: 117%
CCOc1ccccc1NC(=O)CN1C(=O)COc2ccc(S(=O)(=O)Nc3ccccc3)cc21 | inactive: 77%
CCCCC(=O)N1CCN(c2nc3c(C)c(C)ccc3s2)CC1 | active: 46%
CCCCNc1cc(N2CCN(C3CCCCC3)CC2)c2noc3c2c1C(=O)c1ccccc1-3 | active: -5%
Cc1cc(C)c(NC(=O)CSc2cn(CC(=O)N3CCOCC3)c3ccccc23)c(C)c1 | inactive: 103%
O=C(NCC1CCCO1)C1CC(=O)N(c2ccccc2)C1 (stereo unspecified) | inactive: 101%
Cc1ccc(Cl)cc1NC(=O)c1cc(-c2ccc3c(c2)OCCO3)on1 | active: 34%
O=C(Cc1ccc(NC(=O)N2CCCCc3ccccc32)cc1)Nc1ccccc1Br | inactive: 73%
Cc1cccc(NC(=O)CN(C)S(=O)(=O)c2cnc[nH]2)c1C | inactive: 97%
Cc1ccccc1CN1c2ccccc2-c2nc(SCC(=O)Nc3cc(F)ccc3F)ncc2S1(=O)=O | inactive: 89%

Structure (SMILES) | survival
Cc1cc(C)c(NC(=O)CN2C(=O)CCn3nc(-c4cccn4C)cc32)c(C)c1 | inactive: 89%
Cc1ccc(-n2ncc(C(=O)NCCCN3CCN(C)CC3)c2C2CCN(C(=O)OC(C)(C)C)CC2)cc1 | inactive: 96%
COc1ccc(-c2nnc(SCC(=O)NCCc3ccccc3)nc2-c2ccc(OC)cc2)cc1 | inactive: 101%
Cc1cccc(C)c1OCC(=O)Nc1c(C(=O)c2ccccc2)oc2ccccc12 | inactive: 72%
CCc1ccccc1NC(=O)c1ncoc1-c1ccco1 | inactive: 80%
COc1ccc(-c2c(C)nn3c(-c4ccccc4)cc(-c4ccccc4)nc23)cc1 | inactive: 115%
Cc1ccc(NC(=O)CSc2nc3nccnc3c(=O)n2CCc2c[nH]c3ccccc23)c(C)c1 | active: 45%
Cc1cc(C)c2c(n1)SCC(=O)N2CC(=O)Nc1cccc(C)c1C | inactive: 97%
COc1cccc(Cn2c(=O)n(CC3CCC(C(=O)N4CCOCC4)CC3)c(=O)c3sccc32)c1 (stereo unspecified) | inactive: 124%
CCOc1ccc(NC(=O)c2oc3ccccc3c2NC(=O)Cc2cccs2)cc1 | inactive: 82%
CCN1CCN(C(=O)c2ccc3c(c2)N(Cc2ccc(Cl)cc2)C(=O)c2ccccc2S3=O)CC1 (stereo unspecified) | inactive: 72%
CCc1ccc2c(c1)c(=O)c(C(=O)c1ccccc1)cn2CC(=O)Nc1ccc(C)c(Cl)c1 | inactive: 68%
O=C(NC1CCCCC1)C(c1ccco1)N(Cc1cccs1)C(=O)C(F)(F)F (stereo unspecified) | inactive: 88%
CCc1ccc2c(c1)c(=O)c(C(=O)c1ccc(C)cc1)cn2CC(=O)Nc1ccccc1C | inactive: 65%
Cc1ccc(C(=O)Nc2nnc(S(=O)(=O)N3CCCc4ccccc43)s2)cc1 | active: 39%
CCOc1ccc(S(=O)(=O)NCCc2csc3nc(-c4cccc(C)c4)nn23)cc1 | inactive: 78%
Fc1ccc(Nc2c(-c3c[nH]c4ccccc34)nc3ccccn23)cc1 | inactive: 70%
COc1ccc(CCNC(=O)c2ccc(CSCc3ccc(C)cc3)o2)cc1OC | inactive: 73%
COc1ccc(C(=O)Nc2ccc3nc(N4CCCCC4)cc(C)c3c2)cc1OC | inactive: 55%

Structure (SMILES) | survival
COCCCNC(=O)C1CCN(C(=O)c2cc3sccc3n2Cc2ccc(Cl)cc2)CC1 | inactive: 59%
Cc1ccc(C)c(N2CCN(C(=O)c3cccn4c(=O)c5ccccc5nc34)CC2)c1 | inactive: 82%
CCCCOC(=O)c1ccc(NC(=O)c2cc(=O)c3ccccc3o2)cc1 | inactive: 57%
Cc1cc(SCC(=O)Nc2ccc(C(F)(F)F)cc2)nc(=O)[nH]1 | inactive: 75%
CCc1ccc(C(=O)c2cn(CC(=O)Nc3ccc(OC)cc3)c3cc4c(cc3c2=O)OCCO4)cc1 | inactive: 92%
C=CCN1C(=O)C(C(=O)O)C(=O)c2ccccc21 (stereo unspecified) | inactive: 78%
Cc1ccc(OCCSc2nc3ccccc3n2CC(=O)NC(C)C)cc1 | inactive: 52%
O=C1CSC2(C(=O)N(Cc3c(F)cccc3Cl)c3ccccc32)N1c1ccc(F)c(F)c1 (stereo unspecified) | inactive: 78%
O=C(CSc1ncc2c(n1)-c1cc(Cl)ccc1N(Cc1ccccc1)S2(=O)=O)NCc1ccccc1 | inactive: 89%
CCn1nnc(NC(=O)C(C)(c2ccccc2)c2ccccc2)n1 | inactive: 70%
Cc1ccc(-c2nnn3c2nc(N2CCC(C)CC2)c2ccccc23)cc1 | active: -6%
Cc1cnc2c(c1)N1CCC2CC1 | inactive: 100%
COc1cc(NC(=O)c2cc3cc4ccc(OC)c(Cl)c4nc3s2)cc(OC)c1 | inactive: 98%
Cc1ccc(-c2cc3ncc4c(n3n2)-c2ccccc2OC4)cc1 | inactive: 68%
CCC(Sc1ccc2nnc(CCNS(=O)(=O)c3ccc(OC)cc3)n2n1)C(=O)OC (stereo unspecified) | inactive: 98%
COc1ccc(-c2nc3c4ccccc4n(CC(=O)Nc4ccc(C(C)=O)cc4)c(=O)n3n2)cc1 | inactive: 71%
Cc1cc(C)cc(NC(=O)CSc2nc3c(cnn3-c3ccc(F)cc3)c(=O)[nH]2)c1 | inactive: 68%
O=C(OCc1ccc(Cl)cc1Cl)c1ccncc1 | inactive: 98%
